About 200 (0.44%) of roughly 45,000 compounds were called active. Not shown: some 7% with an inconclusive outcome. Calls follow the shape of the dose curve; as a rule, active = well fitted activation curve with a large enough effect; inconclusive = small, poorly fitted or top-dose-only effect; inactive = no such curve, though single readings can be large or run the other way. This is one part of the list.
Test: qHTS of TDP-43 Inhibitors: NCGC Sytravon Library Screen; also: 0% is about no effect; nearly all actives have a fitted effect of over 55% in size
Conditions: yeast TDP-43 toxicity rescue, BacTiter-Glo growth, 24 h; series mostly up to 46.1 µM; growth rescue (activation): at the top concentration
Method in brief: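 TDP-43-expressing yeast, pregrown in raffinose, seeded at OD600 0.02 in galactose medium with compound for 24 hr at 30 deg C. Growth read by BacTiter-Glo luminescence, so rescue of toxicity appears as activation.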

Row | SMILES | growth rescue (activation)
1 | C[C@@H]1CN(c2nc3nonc3nc2N2CCSCC2)C[C@H](C)O1 | inactive: -39.1%
2 | COc1ccc(C(=O)Nc2ccc(NC(=O)C3CC3)nc2)cc1 | inactive: 15.8%
3 | CC1(C)CC(=O)c2cc(N=C/C(C(=O)c3ccccc3)=C(\O)c3ccccc3)c(=O)oc2C1 | inactive: 3.34%
4 | Cc1cc2cc(C#N)c(SCC(=O)Nc3nonc3C)nc2cc1C | inactive: -6.66%
5 | O=C(CSc1nc2cc(Cl)ccc2c(=O)n1Cc1ccco1)Nc1ccc(S(=O)(=O)N2CCOCC2)cc1 | inactive: 21.8%
6 | COc1cc(SC)ccc1C(=O)N(C)CC(=O)Nc1cccc2ccccc12 | inactive: 23.3%
7 | O=C(CCn1c(=O)c2ccccc2n(Cc2ccccc2)c1=O)NCc1ccc2c(c1)OCO2 | inactive: 12.6%
8 | CC(C)c1ccc(C(=O)CN2C(=O)NC3(CCc4ccccc43)C2=O)cc1 (stereo not drawn) | inactive: -52.6%
9 | N#CCCN(Cc1ccccc1)C(=S)Nc1ccccc1 | inactive: 13.2%
10 | CC1CCc2c(sc(/N=C/N(C)C)c2C#N)C1 (stereo not drawn) | inactive: 33.5%
11 | CCOc1ccc(NC(=O)Cn2cc(C(C)=O)c3ccccc32)cc1 | inactive: -4.91%
12 | CC(C)C(N)c1csc(Nc2ccc(C(F)(F)F)cn2)n1 (stereo not drawn) | inactive: 5.48%
13 | O=C1N=C(N2CCOCC2)S/C1=C\c1ccncc1 | inactive: -7.99%
14 | COCCn1cnc2c1c(=O)n(Cc1ccc(C#N)cc1)c(=O)n2Cc1ccccc1 | inactive: 5.43%
15 | Cc1[nH]n(-c2ccccc2)c(=S)c1C=Nc1ccc([N+](=O)[O-])cc1 | inactive: 12.5%
16 | CCC(C)NS(=O)(=O)c1ccc(NC(=O)CNCc2cccs2)cc1 (stereo not drawn) | inactive: -3.02%
17 | N#Cc1ccccc1Sc1ccccc1C(=O)OCC(=O)NC12CC3CC(CC(C3)C1)C2 | inactive: -1.51%
18 | O=[N+]([O-])c1cccc(-c2n[nH]c(=S)n2-c2ccc(Br)cc2)c1 | inactive: 2.94%
19 | C/C(=N/OC(=O)c1c(-c2ccccc2Cl)noc1C)c1cnccn1 | inactive: 26.2%
20 | COc1ccc(CSCC(=O)N/N=C/c2ccccc2O)cc1 | inactive: -2.2%
21 | CN1C(=O)N(C)C(c2ccccc2Cl)C2=C1CC(C)(C)CC2=O (stereo not drawn) | inactive: 22.1%
22 | CN(C)S(=O)(=O)c1cccc(COC(=O)CN2CCCCCC2=O)c1 | inactive: 8.83%
23 | Cc1ccc(S(=O)(=O)N2CCC(C(=O)OCc3ccc([N+](=O)[O-])cc3)CC2)cc1 | inactive: 28.8%

Row | SMILES | growth rescue (activation)
24 | Nc1cc(=O)[nH]c(SCC(=O)Nc2cc(S(=O)(=O)N3CCOCC3)ccc2Cl)n1 | inactive: -5.82%
25 | CCC(=O)NC(=S)Nc1c(C)cc(Br)cc1C | inactive: 35%
26 | COc1ccc(NCC(=O)N/N=C2\CCc3ccccc32)cc1 | inactive: 9.24%
27 | CCOC(=O)C1=C(C)NC(=O)NC1c1cc(Br)c(O)c(OC)c1 (stereo not drawn) | inactive: -18.8%
28 | NS(=O)(=O)c1ccc(CCNC(=O)c2ccc(NC3=NC4CS(=O)(=O)CC4S3)cc2)cc1 (stereo not drawn) | inactive: 1.29%
29 | Cc1nc2ccc(Cl)cn2c1C(=O)NN | inactive: 8.28%
30 | COc1ccccc1CC(=O)Nc1ccc2nc(C)sc2c1 | inactive: 16%
31 | CCC1CCCCN1CCCNC(=O)CSc1nc2nc(C)c(Cc3ccc(C)cc3)c(C)n2n1 (stereo not drawn) | inactive: -4.64%
32 | CSCCC(NS(=O)(=O)/C=C/c1ccccc1)C(=O)NCCc1ccc(S(N)(=O)=O)cc1 (stereo not drawn) | inactive: 7.18%
33 | CC(C)c1onc(C(=O)NCCc2ccccc2)c1[N+](=O)[O-] | inactive: 22.3%
34 | COC(=O)c1ccc(NC(c2ccc(Cl)cc2)P(=O)(OC)OC)cc1 (stereo not drawn) | inactive: -21.4%
35 | O=[N+]([O-])c1cc(/C=N\Nc2nc(-c3ccccc3)cs2)ccc1O | inactive: -3.62%
36 | COc1ccc(CCN(C)Cc2c(O)ccc3ccccc23)cc1OC | inactive: -4.41%
37 | CCCCC(=O)N(C)c1c(CC)nc2c(OCCOC)cccn12 | inactive: -9.58%
38 | CCOC(=O)c1c(C)n(C)c2ccc(OC)c(NC(=O)CN3CCCCC3)c12 | inactive: 7.91%
39 | O=[N+]([O-])c1cccc(N/N=C/c2ccc(N3CCOCC3)cc2)c1 | inactive: 4.44%
40 | O=c1[nH]c(Cc2ccccn2)nc2scc(-c3ccc(Cl)cc3)c12 | inactive: 2.35%
41 | CC1Cc2ccccc2N1C(=O)CSc1nnc(-c2ccc(S(=O)(=O)N3CCOCC3)cc2)n1C (stereo not drawn) | inactive: 18.7%
42 | CCc1cc(=O)[nH]c(SCc2ccc(C)cc2)n1 | inactive: 26.2%
43 | CN(CC(=O)NCCc1ccccc1)S(=O)(=O)c1cnc[nH]1 | inactive: 15.4%
44 | CC(C)(C)NC(=S)NCc1ccncc1 | inactive: -0.0637%
45 | O=C1CC(NNc2ccccc2)C(=O)N1c1cccc(Cl)c1 (stereo not drawn) | inactive: -10.7%
46 | C=CCSC1=N/C(=C\c2ccc3c(c2)OCO3)C(=O)S1 | inactive: -3.95%

Row | SMILES | growth rescue (activation)
47 | CC(C)[C@H](NC(=O)OCc1ccccc1)C(=O)OCC(=O)NCc1ccco1 | inactive: 0.2%
48 | COc1ccc(CCNC(=O)c2ccccc2NS(=O)(=O)c2cc(C(=O)O)ccc2OC)cc1 | inactive: 11.6%
49 | C/C(=N\S(=O)(=O)c1ccc(C)cc1)N(C)C | inactive: 12.9%
50 | C=CCn1c(SCC(N)=O)nc2nc3c(cc2c1=O)COC(C)(C)C3 | inactive: 29.1%
51 | Cc1ccc(NS(=O)(=O)c2cccc(C(=O)Nc3cccnc3)c2)c(C)c1 | inactive: 15.9%
52 | COc1ccc(F)cc1C(=O)C1CCCN(Cc2cnc(N3CCCC3)s2)C1 (stereo not drawn) | inactive: 2.81%
53 | CC(C(=O)NCC1CCCO1)N1C(=O)C2C3CC(C(Br)C3Br)C2C1=O (stereo not drawn) | inactive: -3.01%
54 | CS(=O)(=O)N1CCN(c2ccc([N+](=O)[O-])c(SCc3ccco3)c2)CC1 | inactive: -3.74%
55 | CC(NC(=O)CCc1nnc(Cc2cccc(C(F)(F)F)c2)o1)C1CC1 (stereo not drawn) | inactive: 1.52%
56 | CC(NS(=O)(=O)/C=C/c1ccccc1)c1ccccc1 (stereo not drawn) | inactive: 21%
57 | CS(=O)(=O)N1CCC(C(=O)Nc2cc(Cl)ccc2Cl)CC1 | inactive: 7.48%
58 | CC(C)(C)C(=O)Nc1ccc(S(=O)(=O)Nc2ccccn2)cc1 | inactive: -14.2%
59 | CCc1cccc(NC(=O)CN(C)S(=O)(=O)c2cnc[nH]2)c1 | inactive: -13.5%
60 | Nn1c(-c2ccccc2)nc2cc(Cl)ccc2c1=O | inactive: 17.9%
61 | Cc1ccc(C(=O)NC(c2ccccc2)C(Cl)Cl)cc1 (stereo not drawn) | inactive: 17.6%
62 | CC(=O)c1ccc(NC(=O)c2cc(-c3cccs3)on2)cc1 | inactive: -29.3%
63 | O=C(Nc1cccc(S(=O)(=O)NC2=NCCC2)c1)c1ccc(F)cc1F | inactive: -0.247%
64 | CCS(=O)(=O)Nc1cccc(C2=NN(C(=O)c3ccco3)C(c3ccco3)C2)c1 (stereo not drawn) | inactive: -5.61%
65 | CCn1c(=O)c(C(=O)NNC(=O)c2ccc(Cl)cc2Cl)c(O)c2ccccc21 | inactive: -30.7%
66 | O=C(CSc1n[nH]c(-c2ccncc2)n1)Nc1ccc(Cl)cc1 | inactive: -20.4%
67 | C/C(=N/NC(=O)c1cnccn1)c1cccs1 | inactive: -17.1%
68 | CCOC(=O)N1CCN(C(=O)c2ccccc2N(Cc2ccccc2)S(=O)(=O)c2ccccc2)CC1 | inactive: 7.22%

From PubChem BioAssay AID1347073 (National Center for Advancing Translational Sciences (NCATS), 2019)
